T1: Human VSIG4-L-His (human, UniProt Q9Y279 20-283)
T1 construct: long isoform ECD with His tag; also called hVSIG4-L
T1 sequence: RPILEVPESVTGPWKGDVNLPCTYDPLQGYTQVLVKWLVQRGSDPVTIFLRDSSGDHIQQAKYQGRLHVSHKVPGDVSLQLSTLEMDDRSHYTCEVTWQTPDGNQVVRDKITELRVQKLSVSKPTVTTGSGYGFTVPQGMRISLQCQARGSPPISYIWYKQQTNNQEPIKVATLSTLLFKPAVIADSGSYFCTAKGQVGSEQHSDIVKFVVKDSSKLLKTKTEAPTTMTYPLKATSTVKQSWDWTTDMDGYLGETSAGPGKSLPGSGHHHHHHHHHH

T2: Cynomolgus Monkey VSIG4-L-His (cynomolgus monkey)
T2 construct: ECD with His tag; also called cyVSIG4-L; cyno VSIG4-L-His
T2 chain: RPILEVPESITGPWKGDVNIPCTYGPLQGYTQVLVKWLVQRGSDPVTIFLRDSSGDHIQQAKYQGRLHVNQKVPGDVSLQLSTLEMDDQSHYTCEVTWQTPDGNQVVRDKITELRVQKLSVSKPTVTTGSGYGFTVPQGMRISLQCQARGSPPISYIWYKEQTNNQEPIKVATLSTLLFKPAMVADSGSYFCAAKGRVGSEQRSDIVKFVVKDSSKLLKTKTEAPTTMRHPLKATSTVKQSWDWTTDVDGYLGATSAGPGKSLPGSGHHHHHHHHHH


Assays:
Human VSIG4-L-His = target: T1, Human VSIG4-L-His; assay: BLI, IgG on AHC sensor, antigen 100 nM
[1] = target: T2, Cynomolgus Monkey VSIG4-L-His; assay: BLI, IgG on AHC sensor, antigen 100 nM

Row | Binder | KD relative to parental chimera (Human VSIG4-L-His) | KD relative to parental chimera [1]
1 | h16E10.B humanized IgG4 (S228P) kappa (antibody) heavy: QVQLVQSGAEVKKPGASVKVSCKASGYTFTNYWLGWVRQAPGQGLEWIGDIYPGGGYTNYNEKFQGRVTLTADTSSSTAYMELSSLRSEDTAVYFCAKFYYYGSSYYFDSWGQGTTVTVSSASTKGPSVFPLAPCSRSTSESTAALGCLVKDYFPEPVTVSWNSGALTSGVHTFPAVLQSSGLYSLSSVVTVPSSSLGTKTYTCNVDHKPSNTKVDKRV[human IgG4 Fc with S228P (EU numbers) not printed] light: DIVMTQSPDSLAVSLGERATINCKSSQSLLNSGNQENYLAWYQQKPGQPPKLLIYGASTRESGVPDRFSGSGSGTDFTLTISSLQAEDVAVYYCQNDHSYPLTFGGGTKLEIKRTVAAPSVFIFPPSDEQLKSGTASVVCLLNNFYPREAKVQWKVDNALQSGNSQESVTEQDSKDSTYSLSSTLTLSKADYEKHKVYACEVTHQGLSSPVTKSFNRGEC | 1.4 fold | 1 fold
2 | h16E10.A humanized IgG4 (S228P) kappa (antibody) heavy: QVQLVQSGAEVKKPGASVKVSCKASGYTFTNYWLGWVRQAPGQGLEWIGDIYPGGGYTNYNEKFQGRVTLTADTSSSTAYMELSSLRSEDTAVYFCAKFYYYGSSYYFDSWGQGTTVTVSSASTKGPSVFPLAPCSRSTSESTAALGCLVKDYFPEPVTVSWNSGALTSGVHTFPAVLQSSGLYSLSSVVTVPSSSLGTKTYTCNVDHKPSNTKVDKRV[human IgG4 Fc with S228P (EU numbers) not printed] light: DIVLTQSPDSLAVSLGERATINCKSSQSLLNSGNQENYLAWYQQKPGQPPKLLIYGASTRESGVPDRFSGSGSGTDFTLTISSLQAEDVAVYYCQNDHSYPLTFGGGTKLEIKRTVAAPSVFIFPPSDEQLKSGTASVVCLLNNFYPREAKVQWKVDNALQSGNSQESVTEQDSKDSTYSLSSTLTLSKADYEKHKVYACEVTHQGLSSPVTKSFNRGEC | 1 fold | 1.4 fold
